# Results taken from PMC11199487, “Hub stability in the calcium calmodulin-dependent protein kinase II” (Communications Biology, 2024).
# What was measured:
# [1] = target: the molecule itself; assay: SEC; EnRich SEC 650 column, 50 mM Tris, 150 mM KCl, 0.2 mM TCEP, 2% glycerol, pH 8.0, room temperature, thawed stocks applied without dilution, 250 μL, 1 mL/min
# [2] = target: the molecule itself; assay: single-molecule TIRFM (spot intensity and photobleaching steps); Venus-tagged CaMKII stock diluted >1000x in AB- buffer, immobilised on a GFP antibody-coated coverslip, unbound protein washed out, room temperature
protein,measurement,setting,value
"CaMKIIβ holoenzyme F458A (6His-V15-rCaMKIIβ F458A) (enzyme, rat CaMKII beta, open reading frame codon optimized for bacterial expression, with F458A; also called dimeric βF458A; source: E. coli BL21/Rosetta, co-transformed with a protein phosphatase plasmid, purified (nickel Hi-Trap); not shown: Venus, N-terminal, kept) not shown",stoichiometry N,[1],2
"CaMKIIα holoenzyme F394A (6His-V15-mCaMKIIaF394A) (enzyme, also called α_(F394A); source: E. coli BL21/Rosetta, co-transformed with a protein phosphatase plasmid, purified (nickel Hi-Trap); not shown: Venus, N-terminal, kept) not shown",stoichiometry N,[2],2
"CaMKIIβ holoenzyme, native (6His-V15-rCaMKIIβ) (enzyme, rat CaMKII beta, open reading frame codon optimized for bacterial expression; also called native β holoenzyme; V-CaMKII β; source: E. coli BL21/Rosetta, co-transformed with a protein phosphatase plasmid, purified (nickel Hi-Trap); not shown: Venus, N-terminal, kept) not shown",binding result,[2],binds
